# Measured values as given in article PMC11582101, “Unlocking the potential: unveiling tyrphostins with Michael-reactive cyanoacrylate motif as promising inhibitors of human 5-lipoxygenase” (Pflugers Archiv, 2024).
# Target: T1, recombinant human 5-LO (r5-LO_WT) (Homo sapiens, UniProt P09917)
# T1 sequence (P09917 1-674): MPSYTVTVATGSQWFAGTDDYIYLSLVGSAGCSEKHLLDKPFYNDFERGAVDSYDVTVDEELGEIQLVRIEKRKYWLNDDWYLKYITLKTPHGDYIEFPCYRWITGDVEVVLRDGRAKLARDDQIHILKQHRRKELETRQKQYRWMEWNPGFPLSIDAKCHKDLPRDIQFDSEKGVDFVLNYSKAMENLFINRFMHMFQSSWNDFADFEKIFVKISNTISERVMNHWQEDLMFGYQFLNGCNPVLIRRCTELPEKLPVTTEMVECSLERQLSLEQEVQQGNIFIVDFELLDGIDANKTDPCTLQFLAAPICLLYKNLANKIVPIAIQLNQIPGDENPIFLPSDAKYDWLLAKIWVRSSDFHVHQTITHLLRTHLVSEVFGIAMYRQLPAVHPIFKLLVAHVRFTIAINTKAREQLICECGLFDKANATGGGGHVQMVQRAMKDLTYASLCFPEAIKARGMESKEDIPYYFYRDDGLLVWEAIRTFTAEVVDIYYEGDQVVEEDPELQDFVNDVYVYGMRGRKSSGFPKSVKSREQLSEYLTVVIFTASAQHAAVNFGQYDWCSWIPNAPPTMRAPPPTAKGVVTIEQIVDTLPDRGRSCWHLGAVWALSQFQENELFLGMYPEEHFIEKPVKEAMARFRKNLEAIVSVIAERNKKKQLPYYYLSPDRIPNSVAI
# Assay: not given
# Conditions: 3 µg r5-LO_WT, 15 min preincubation on ice, 10 µM AA, 2 mM CaCl2; (95% CI), n = 3–6
row,SMILES,"IC50 for inhibition of 5-LO product formation, r5-LO_WT"
1,N#C/C(=C\c1ccc(O)c(O)c1)C(=O)O [AG30],only marginal 5-LO inhibiting activity
2,N#C/C(=C/c1cc(Cl)cc(Cl)c1)c1cccnc1 [RG14620],failed to inhibit r5-LO_WT or only showed marginal inhibitory activity
3,N#CC(C#N)=Cc1ccc(O)cc1 [Tyrphostin 8],no inhibition

# Target: T1, recombinant human 5-LO (r5-LO_WT)
# Assay: biochemical
# Conditions: IC50 for inhibition of 5-LO product formation, 3 µg r5-LO_WT, 15 min preincubation on ice, 10 µM AA, 2 mM CaCl2, (95% CI), n = 3–6
row,SMILES,IC50
1,N#C/C(=C\c1ccc(O)c(O)c1)C(N)=O [(E)-AG99],1500 nM
2,N#CC(C#N)=Cc1ccc(O)c(O)c1 [AG18],~1000 nM and 1400 nM
3,N#CC(C#N)=Cc1ccc([N+](=O)[O-])c(O)c1 [AG126],> 20000 nM
4,N#C/C(=C\c1ccc(O)c(O)c1)C(=O)NCCCCc1ccccc1 [AG556],64 nM
5,"O=C(/C=C/c1ccc(O)c(O)c1)OCCc1ccccc1 [CAPE, caffeic acid phenethyl ester]",84 nM
6,CCC[C@H](NC(=O)/C(C#N)=C/c1cccc(Br)n1)c1ccccc1 [Degrasyn],110 nM
7,C[C@H](NC(=O)/C(C#N)=C/c1cccc(Br)n1)c1ccccc1 [WP1066],940 nM

# Second part, the molecule after the results:
row,IC50,SMILES
1,~1000 nM and 930 nM,N#CC(C#N)=Cc1cc(O)c(O)c(O)c1 [AG82]
2,280 nM,N#C/C(=C\c1ccc(O)c(O)c1)C(=O)NCc1ccccc1 [AG490]
3,360 nM,N#C/C(=C\c1ccc(O)c(O)c1)C(=O)Nc1ccccc1 [AG494]
4,80 nM and 78 nM,CC(C)(C)c1cc(/C=C(\C#N)C(N)=S)cc(C(C)(C)C)c1O [AG879]
5,> 25000 nM,N#C/C(=C/c1cc(Cl)cc(Cl)c1)c1cccnc1 [RG14620]
6,450 nM,CC(C)c1cc(/C=C(\C#N)C(=O)NCCCc2ccccc2)cc(C(C)C)c1O [SU1498]

# Several values for one entry are separate records, joined by “and”; a condition that tells them apart may be missing. Equal entries are not always repeated.
